# Laboratory results: paper PMC5892938
# Some of the results follow. At the low end of the ranking, values are background and their order means little.
# Molecular target: GST-SBP-SLBP (stem-loop binding protein) (UniProt Q14493)
# Assay: targeted RNA Bind-n-Seq;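 further: DESeq read counts versus GST-SBP nonspecific binding control pulldown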
# Conditions: RBNS binding buffer: 25 mM Tris pH 7.5, 150 mM KCl, 3 mM MgCl2, 0.1% Tween, 0.5 mg/mL BSA, 1 mM DTT; 27 nM protein, 750 pM RNA pool; temperature not stated; high values mean tight binding
row,Sequence,binding signal (log2 fold change)
1,GGUCACGUCUCAAUCAACUCUUUCUCCAGGGAAAGCCCUGGUAAAUUCAACAGCUCGCAGUCAAG,0.00876
2,GGUCACGUCUCAAUCAACUCUAUAGAGGGGGGGAAAACCCCUUUACCCUCCGCAUCAACAGCUCGCAGUCAAG,-0.477
3,GGUCACGUCUCAAUCAACUCAUUCCCCAGGGAAAUCCCUGGUUAUUUCAACAGCUCGCAGUCAAG,-0.0761
4,GGUCACGUCUCAAUCAACUCAAUCUCCAGGGAAAACCCUGGCUAACUCAACAGCUCGCAGUCAAG,0.0527
5,GGUCACGUCUCAAUCAACUCUUCAGAGGGGGGGAAAACCCCUUUACCCUCAACCUCAACAGCUCGCAGUCAAG,-0.347
6,GGUCACGUCUCAAUCAACUCAAUCCCAGGAGUUUUCUCCUGCAAUGUCAACAGCUCGCAGUCAAG,0.317
7,GGUCACGUCUCAAUCAACUCAUUCCCCAGGGAAAGCCCUGGUAUACUCAACAGCUCGCAGUCAAG,-0.0868
8,GGUCACGUCUCAAUCAACUCCACAGAGGGGGGGAAAACCCCUUUACCCUCAUACUCAACAGCUCGCAGUCAAG,-0.713
9,GGUCACGUCUCAAUCAACUCUUCCCCCAGGGAAAUCCCUGGUUAUUUCAACAGCUCGCAGUCAAG,0.297
10,GGUCACGUCUCAAUCAACUCAUUUCCAGGAGUUUUCUCCUGCUUAGUCAACAGCUCGCAGUCAAG,-0.00368
11,GGUCACGUCUCAAUCAACUCUUCCCCCAGGGAAAUCCCUGGUUUAUUCAACAGCUCGCAGUCAAG,0.0378
12,GGUCACGUCUCAAUCAACUCUUCCUCAGGAGUUUUCUCCUGCUAUCUCAACAGCUCGCAGUCAAG,0.0992
13,GGUCACGUCUCAAUCAACUCAUUUUCAGGAGUUUUCUCCUGCAUUCUCAACAGCUCGCAGUCAAG,-0.187
14,GGUCACGUCUCAAUCAACUCAAUGUCAGGAGUUUGCUCCUGCUAAUUCAACAGCUCGCAGUCAAG,0.116
15,GGUCACGUCUCAAUCAACUCACCCGAGGGGGGGAAAACCCCUUUACCCUCAAAAUCAACAGCUCGCAGUCAAG,-0.251
16,GGUCACGUCUCAAUCAACUCUAUUUCAGGAGUUUCCUCCUGUUAACUCAACAGCUCGCAGUCAAG,-0.0415
17,GGUCACGUCUCAAUCAACUCAUUCUCCAGGGAAACCCCUGGUAAACUCAACAGCUCGCAGUCAAG,0.0104
18,GGUCACGUCUCAAUCAACUCUUCCCCCAGGGAAACCCCUGGCAAAUUCAACAGCUCGCAGUCAAG,0.221
19,GGUCACGUCUCAAUCAACUCAGUUUCCAGGGAAAUCCCUGGCUUUUUCAACAGCUCGCAGUCAAG,0.0938
20,GGUCACGUCUCAAUCAACUCAUGUCCAGGAGUUUACUCCUGUAUUUUCAACAGCUCGCAGUCAAG,-0.213
21,GGUCACGUCUCAAUCAACUCCAAAGAGGGGGGGAAAACCCCUUUGCCCUCAUUAUCAACAGCUCGCAGUCAAG,-0.299
22,GGUCACGUCUCAAUCAACUCAUCCUCCAGGGAAAACCCUGGCAAUUUCAACAGCUCGCAGUCAAG,-0.337
23,GGUCACGUCUCAAUCAACUCAAUCCCAGGAGUUUACUCCUGUAAAGUCAACAGCUCGCAGUCAAG,0.197
24,GGUCACGUCUCAAUCAACUCUUCUCCCAGGGAAACCCCUGGCUAUGUCAACAGCUCGCAGUCAAG,0.0327

row,Sequence,binding signal (log2 fold change)
1,GGUCACGUCUCAAUCAACUCUCCAGAGGGGGGGAAAACCCCUUUACCCUCAUACUCAACAGCUCGCAGUCAAG,-0.478
2,GGUCACGUCUCAAUCAACUCUUUUCCCAGGGAAAUCCCUGGUAAUUUCAACAGCUCGCAGUCAAG,-0.105
3,GGUCACGUCUCAAUCAACUCUUUUUCAGGAGUUUCCUCCUGCAUACUCAACAGCUCGCAGUCAAG,0.151
4,GGUCACGUCUCAAUCAACUCAUCCCCCAGGGAAAACCCUGGCAAUCUCAACAGCUCGCAGUCAAG,-0.0581
5,GGUCACGUCUCAAUCAACUCAUCCUCCAGGGAAACCCCUGGUUUUCUCAACAGCUCGCAGUCAAG,0.0442
6,GGUCACGUCUCAAUCAACUCAAUUCCCAGGGAAAACCCUGGUUAAUUCAACAGCUCGCAGUCAAG,-0.132
7,GGUCACGUCUCAAUCAACUCAUUCUCCAGGGAAAGCCCUGGUAAUCUCAACAGCUCGCAGUCAAG,-0.0677
8,GGUCACGUCUCAAUCAACUCAUUUCCAGGAGUUUUCUCCUGUAGUCUCAACAGCUCGCAGUCAAG,0.0455
9,GGUCACGUCUCAAUCAACUCAACGCCAGGAGUUUGCUCCUGUAAUUUCAACAGCUCGCAGUCAAG,0.113
10,GGUCACGUCUCAAUCAACUCCCCGGAGGGGGGGAAAACCCCUUUACCCUCGUAUUCAACAGCUCGCAGUCAAG,-0.297
11,GGUCACGUCUCAAUCAACUCAAUCCCAGGAGUUUCCUCCUGUAAUCUCAACAGCUCGCAGUCAAG,-0.0297
12,GGUCACGUCUCAAUCAACUCAUUUUCCAGGGAAAACCCUGGCUAUCUCAACAGCUCGCAGUCAAG,0.0199
13,GGUCACGUCUCAAUCAACUCAUCUCCAGGAGUUUGCUCCUGUAUACUCAACAGCUCGCAGUCAAG,0.147
14,GGUCACGUCUCAAUCAACUCAUUCGAGGGGGGGAAAACCCCUUUACCCUCAUUAUCAACAGCUCGCAGUCAAG,0.0932
15,GGUCACGUCUCAAUCAACUCCUCAGAGGGGGGGAAAACCCCUUUACCCUCCAUCUCAACAGCUCGCAGUCAAG,0.0333
16,GGUCACGUCUCAAUCAACUCAUUCUCAGGAGUUUUCUCCUGCUAUCUCAACAGCUCGCAGUCAAG,-0.0264
17,GGUCACGUCUCAAUCAACUCUAUUUCCAGGGAAAGCCCUGGCAUGUUCAACAGCUCGCAGUCAAG,0.211
18,GGUCACGUCUCAAUCAACUCUUUCCCAGGAGUUUCCUCCUGCAUACUCAACAGCUCGCAGUCAAG,0.123
19,GGUCACGUCUCAAUCAACUCUACUCCAGGAGUUUACUCCUGCAUAUUCAACAGCUCGCAGUCAAG,-0.00162
20,GGUCACGUCUCAAUCAACUCAAUCUCAGGAGUUUCCUCCUGUUAUCUCAACAGCUCGCAGUCAAG,0.0969
21,GGUCACGUCUCAAUCAACUCACUAGAGGGGGGGAAAACCCCUUUACCCUCGUAUUCAACAGCUCGCAGUCAAG,-0.14
22,GGUCACGUCUCAAUCAACUCAAUUUCCAGGGAAAUCCCUGGCUAUCUCAACAGCUCGCAGUCAAG,-0.0468
23,GGUCACGUCUCAAUCAACUCAGUUUCAGGAGUUUCCUCCUGCAUUCUCAACAGCUCGCAGUCAAG,0.256
